# Reference: PubChem BioAssay AID720647 (Broad Institute, 2013)
# Out of some 380,000 compounds screened, about 1,300 (0.34%) were called active. This list was built around the results that the source calls inconclusive (neither active nor inactive); the mix of calls is not that of the screen.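 Rule for the calls: active = drop in luminescence signal, shown as inhibition above about 50% in the replicate tests (limit read from the data, passing the limit was not always enough); inconclusive = probably only some replicates passing the limit; inactive = the rest.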
# System: Drosophila bursicon receptor LGR2 (rickets)
# Test: inhibitors of bursicon-induced LGR2 CRE-luciferase signal, primary screen, cell-based, HEK293, CRE-luciferase reporter, bursicon stimulation (AID 720647);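 note: agonist challenge used bursicon conditioned medium at about half maximal strength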
# Conditions: bursicon-stimulated, 4 h, at 9.99 µM, hits give high values
row,SMILES,inhibition
1,O=C(Nc1ccc2nc3n(c(=O)c2c1)CCCC3)c1ccccc1F,inactive: -7.1%
2,CC(C)CCNC(=O)c1ccc2c(Cl)c3c(nc2c1)CCC3,inconclusive: 49.1%
3,CN(CCC#N)c1ccc(/C=C(\C#N)c2ccccn2)cc1,active: 73%
4,Cc1ccc(S(=O)(=O)N2CCCc3nc(-c4ccc(F)cc4)ccc32)cc1,inconclusive: 52%
5,Cc1nc2c(OCCC3CCCCC3)cccn2c1N(C)C(=O)CCC1CCCC1,inconclusive: 13.1%
6,O=C(NC1(Cc2ccccc2)CCN(Cc2ccc(-c3ccccc3)cc2)C1=O)c1ccccc1 (configuration not stated),active: 55.5%
7,Cc1ccc2nc(C(F)(F)F)c(C#N)c(N)c2c1,active: 65.4%
8,CCOCCCn1c(SCc2nc3ccccc3s2)nc2ccccc2c1=O,inconclusive: 28.8%
9,COc1ccc(NC(=O)N(C)C[C@@H]2Oc3ccc(NC(=O)C4CCCCC4)cc3C(=O)N([C@H](C)CO)C[C@@H]2C)cc1,inactive: 8.93%
10,COc1cccc(CNc2ncc(C(=O)Nc3cc(OC)c(OC)c(OC)c3)c(C)n2)c1,inactive: -10.7%
11,CSc1ncccc1C(=O)Nc1cc(C)ccn1,inactive: -2.02%
12,Cc1ccc(S(=O)(=O)N2CC[C@@H]3[C@H]2c2cc(C#Cc4ccc(F)cc4)ccc2N[C@@H]3CO)cc1,inactive: 26.5%
13,Cc1nc(-c2ccc(NC(=O)c3ccco3)cc2)cs1,active: 92.6%
14,Cc1ccnc(Nc2nc(-c3sc(C)nc3C)cs2)c1,active: 77.9%
15,Oc1cccc(Nc2nc(O)c(/C=C3\C=Nc4ccccc43)s2)c1,inactive: -70.3%
16,Cc1ccsc1C(=O)N/N=C/c1ccc2c(c1)OCO2,inconclusive: 60.2%
17,Cc1ccc(N/C=C/C(=O)c2ccccc2)cc1Br,inactive: -73.5%
18,O=C(/C=C/Nc1ccc(F)cc1F)c1cccs1,active: 78.6%
19,CC(C)(C)NC(=O)c1cccc(NC(=O)c2ccc3c(c2)C(=O)N(C(C)(C)C)C3=O)c1,active: 83.2%
20,CCCC(=O)N1CCCC(c2cc(C(=O)Nc3ccccc3)no2)C1 (configuration not stated),active: 82.4%
21,CC(C)(C)c1ccc(C(=O)Nc2cccc(S(=O)(=O)NC3=NCCC3)c2)cc1,inconclusive: 35.7%
22,Cc1ccc2oc(=O)c3cnn(CC(=O)Nc4cc(-c5cccc(F)c5)no4)c3c2c1,inactive: -7.51%
23,N#Cc1cccc(-c2ccc(C3[C@@H]4CN(C(=O)c5ccccn5)C[C@H]3N4)cc2)c1 (some centres not stated),inconclusive: 41.2%
24,CCCn1c(C)cc(C(=O)COC(=O)c2ccc[nH]c2=O)c1C,active: 55.7%
25,Cc1ccc(-c2csc3nc4c5ccccc5c(NCCCN(C)C)nn4c(=O)c23)cc1,inconclusive: 33.4%
26,COc1ccccc1/C=C/C(=O)OCC(=O)Nc1ccc(Cl)cn1,inconclusive: 25.5%

row,SMILES,inhibition
1,Cc1ccc(C(=O)COC(=O)c2nc(Cl)ccc2Cl)cc1,inactive: 10.5%
2,COc1ccc(NC(=O)Nc2ccc3c(c2)CC(=O)N([C@@H](C)CO)C[C@@H](C)[C@H](CN(C)Cc2ccncc2)O3)cc1,inconclusive: 4.36%
3,COc1ccc2c(=O)c(-c3ccc4c(c3)OCO4)coc2c1,active: 68.8%
4,COc1ccc(-c2ccc(Nc3ccc(S(=O)(=O)N4CCCC4)cc3)nn2)cc1OC,inconclusive: 50.1%
5,COc1ccccc1NC(=O)N[C@@H]1CC[C@@H](CC(=O)N2CCC(Cc3ccccc3)CC2)O[C@@H]1CO,inactive: -15.8%
6,COc1ccc(C(C)NCCC(c2ccc(OC(C)C)cc2)c2ccccc2OC)cc1 (configuration not stated),active: 98.7%
7,COc1ccccc1CN(Cc1nc2ccccc2c(=O)[nH]1)S(=O)(=O)c1ccc2ccccc2c1,inconclusive: 53.6%
8,COc1ccc(OC(=O)N2C/C(=C/c3ccccc3)C(=O)/C(=C\c3ccccc3)C2)cc1,inconclusive: 62.5%
9,C[C@H](CO)N1C[C@H](C)[C@H](CN(C)C(=O)Cc2ccccc2)OCCCC[C@H](C)Oc2ccc(NC(=O)Nc3ccc(C(F)(F)F)cc3)cc2C1=O,inconclusive: 6.08%
10,O=C(NCCc1ccccc1)[C@H]1[C@H](CO)[C@H]2Cn3c(ccc(-c4ccccc4)c3=O)[C@@H]1N2,inactive: 2.66%
11,Clc1ccc(-n2ncc3c(N4CCCC4)ncnc32)cc1,active: 72.5%
12,CNC(=O)CSc1nnc(-c2ccco2)n1-c1ccccc1,inactive: 3.33%
13,Cn1cnc(S(=O)(=O)N2C[C@@H](O)COC[C@H]3O[C@H](CC(=O)NC4CCCC4)CC[C@@H]32)c1,inconclusive: -4.71%
14,N=c1c(C(=O)NCc2ccccc2)cc2c(=O)n3ccccc3nc2n1Cc1ccco1,inconclusive: 41.5%
15,O=[N+]([O-])c1ccc(/C=N/N=C/c2ccc([N+](=O)[O-])o2)o1,active: 82.4%
16,Cc1ccc(NC(=O)c2cc(N3C(=O)CCC3=O)ccc2N2CCOCC2)cc1,inactive: 18.8%
17,C[C@H](CO)N1C[C@H](C)[C@H](CN(C)C(=O)Nc2ccc3c(c2)OCO3)OCCCC[C@H](C)Oc2ccc(NC(=O)NC3CCCCC3)cc2C1=O,inconclusive: 39.6%
18,Cc1cccc(C2N=C(N)Nc3nc4ccccc4n32)c1 (configuration not stated),inactive: -13.4%
19,O=C(CCc1nnc(CCCCc2ccccc2)o1)N1CCCC(O)C1 (configuration not stated),inconclusive: 50.5%
20,O=C(O)c1cccc(N2C(=O)/C(=C/c3ccc([N+](=O)[O-])cc3)C=C2c2ccccc2)c1,inconclusive: 46.1%
21,Cc1nnsc1Sc1ccccn1,inconclusive: 4%
22,Cc1cccc(Cn2nc(C(C)(C)C)cc2C(=O)Nc2ccc(F)cc2)c1,inconclusive: 53.4%
23,CCCCCOc1ccc(Br)cc1CSC(=N)N,inconclusive: -14.4%
24,C[C@H]1CN([C@@H](C)CO)C(=O)Cc2cc(NS(=O)(=O)c3ccc(Cl)cc3)ccc2O[C@@H]1CN(C)Cc1ccc(Cl)c(Cl)c1,inconclusive: 8.41%
25,C[C@@H]1CN([C@@H](C)CO)C(=O)Cc2cc(NC(=O)CCN3CCOCC3)ccc2O[C@H]1CN(C)C(=O)Nc1ccc(F)cc1,inactive: 6.66%
26,C[C@H]1CN([C@@H](C)CO)C(=O)c2cc(C#Cc3ccncc3)cnc2O[C@@H]1CN(C)Cc1ccncc1,inactive: -4.93%
